# About 450 (0.94%) of roughly 48,000 compounds were called active. Roughly 19% stayed inconclusive and do not appear here. Calls follow the shape of the dose curve; as a rule, active = well fitted inhibition curve with a large enough effect; inconclusive = small, poorly fitted or top-dose-only effect; inactive = no such curve, though single readings can be large or run the other way. Some of the results follow.
# Test: Primary qHTS for Identification of Small Molecule Inhibitors of Huntingtin Promoter Activity; also: nearly all actives have a fitted effect of over 50% in size
# Settings: HEK293 HTT promoter firefly luciferase reporter (activity 0% = vehicle and -100% = no light), 24 h; series mostly up to 57.5 µM; activity change, negative = inhibition: at the top concentration
# Outline: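 Luminescence was read after Dual-Glo reagent and a 10 min room-temperature incubation. Values were normalized to vehicle (0% activity) and zero RLU (-100% activity). Reporter HEK293 cells had been exposed to compounds (up to 57.5 uM final) for 24 h.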
row,SMILES,"activity change, negative = inhibition"
1,O=C(C1CCN(S(=O)(=O)c2cccc3nonc23)CC1)N1CCN(c2ccccc2F)CC1,inactive: -14.3%
2,Nc1nnc(SCC(=O)Nc2ccccc2)s1,inactive: 15.7%
3,COc1cccc(NC(=O)Cn2c(=O)n(CC(=O)NCc3ccc(C)cc3)c(=O)c3sccc32)c1,inactive: -20.1%
4,Cc1ccc2nc(-c3c[nH]c4ccccc34)c(Nc3ccccc3C)n2c1,inactive: 11%
5,Cc1cc(C)c(NC(=O)CN2C(=O)c3cccnc3Oc3ccc(C)cc32)c(C)c1,inactive: -22%
6,CCN1CCN(C(=O)Cn2ncc3c4ccccc4n(Cc4ccccc4)c3c2=O)CC1,inactive: 4.02%
7,Cc1ccc(/C=C/C(=O)Nc2ccc(S(N)(=O)=O)cc2)o1,inactive: 7.33%
8,Cn1cncc1[C@@](N)(c1ccc(Cl)cc1)c1ccc2c(c1)c(-c1cccc(Cl)c1)cc(=O)n2C,inactive: -28.7%
9,Cc1nnc(SCC2=C(C(=O)O)N3C(=O)[C@@H](NC(=O)Cn4cnnn4)[C@H]3SC2)s1,inactive: 13.2%
10,O=C(CCS(=O)(=O)c1ccc(Br)cc1)Nc1ccc(Cl)c(C(F)(F)F)c1,inactive: -24.9%
11,CCOC(=O)c1cccc(NC(=O)c2cn(-c3cccc(OC)c3)c(=O)c3ccccc23)c1,inactive: -7.4%
12,Fc1cc(F)c2ncc3c(-c4ccccc4)nn(-c4cccc(Cl)c4)c3c2c1,inactive: -2.26%
13,CC(C)OCCCNC(=O)C(=O)Nc1ccc2nc3n(c(=O)c2c1)CCCCC3,inactive: 19.6%
14,Cc1cccc(Cn2c(=O)n(Cc3ccccc3)c(=O)c3oc4ccccc4c32)c1,inactive: -10.2%
15,Cc1ccccc1NC(=O)C1CCN(C(=O)c2cnn(-c3ccccc3)c2-n2cccc2)CC1,inactive: -10.1%
16,Cc1ccc(Sc2ccc(N3CCC(C(=O)Nc4ccc(C)c(F)c4)CC3)nn2)cc1,inactive: 2.71%
17,Cc1cccc(-c2nc3nc(C)cc(NCc4ccccc4Cl)n3n2)c1,inactive: -37%
18,COc1cc(NC(=O)N(Cc2ccco2)C2CCN(C(C)=O)CC2)cc(OC)c1OC,inactive: -0.295%
19,COc1ccc(-c2cc(C(F)(F)F)nc(-n3nc(C(F)(F)F)cc3C)n2)cc1,inactive: -23%
20,O=C(NCC(c1cccs1)S(=O)(=O)c1cccs1)c1ccc(Cl)cc1 (stereo unspecified),inactive: -19.2%
21,CC(C)c1cnc2c(c1SCc1cccc(F)c1)c(=O)n(C)c(=O)n2C,inactive: -23.9%
22,Cc1ccc(-c2nc3nc(C)cc(C)n3c2Nc2ccc3c(c2)OCCO3)cc1,inactive: 25.3%
23,CC(=O)N1CCc2cc(Br)cc(S(=O)(=O)N3CCC(C)CC3)c21,inactive: -12.7%
24,CCOc1ccc(NC(=O)Cn2c(=O)n(Cc3nc(-c4ccccc4)no3)c(=O)c3cc4c(cc32)OCO4)cc1,inactive: -4.78%

row,SMILES,"activity change, negative = inhibition"
1,CC(=O)c1ccc(NC(=O)c2nc(-c3ccccc3)n(-c3ccc(Cl)cc3)n2)cc1,inactive: -12.7%
2,Cc1nc2nc(NC(=O)C(C)(C)C)[nH]n2c(=O)c1Cc1ccccc1,inactive: 3.84%
3,Cc1ccc(Cn2ccn(CC(=O)Nc3c(C)cc(C)cc3C)c(=O)c2=O)cc1,inactive: -22.3%
4,O=c1[nH]c(=O)n([C@H]2C[C@H](O)[C@@H](CO)O2)cc1C(F)(F)F,inactive: -15.3%
5,Cc1noc(-c2ccc(N3CCC(C)CC3)c([N+](=O)[O-])c2)n1,inactive: 24.4%
6,COc1ccc(NS(=O)(=O)c2cc3c(cc2C)NC(=O)CO3)c(OC)c1,inactive: -19.5%
7,COc1cc(NC(=O)C2CCN(S(=O)(=O)c3ccc4c(c3)oc(=O)n4C)CC2)cc(OC)c1,inactive: -7.79%
8,O=C(CSC1=Nc2ccccc2C2=NC(Cc3ccccc3)C(=O)N12)Nc1ccccc1C(F)(F)F (stereo unspecified),inactive: -15.1%
9,Cc1cccc(CNC(=O)c2oc3c(c2C)-c2nn(Cc4cccc(Cl)c4)cc2CC3)c1,inactive: -15.4%
10,COC(=O)c1ccc2c(c1)N(CC(=O)Nc1cccc(Cl)c1C)C(=O)c1ccccc1S2,inactive: -18.1%
11,CC(C)NC(=O)Cn1c(=O)nc(-c2ccccc2F)c2cc(Cl)ccc21,inactive: -12.2%
12,CCc1ccc(OC(=O)CSc2nnc(-c3ccc(OC)c(OC)c3)o2)cc1,inactive: -6.78%
13,NC1=NCC2c3ccccc3Cc3ccccc3N12 (stereo unspecified),inactive: -7.85%
14,Cc1c2cnn(CC(=O)NC(C)C)c(=O)c2c(C)n1Cc1cccc(Cl)c1,inactive: -18.2%
15,COc1ccc(/C=C/c2nc(C#N)c(NCc3ccc(C)cc3)o2)cc1OC,inactive: -13.5%
16,O=C(O)CCC(=O)O,inactive: -1.93%
17,Cc1ccc(NC(=O)N2CCC3(CC2)Oc2ccccc2C(=O)N3Cc2ccc(F)cc2)cc1,inactive: 42%
18,CCNC(=O)c1ccc2c(c1)sc1nc(-c3cccc(OC)c3)cn12,inactive: 13.8%
19,CC(Oc1ccccc1)C(=O)Nc1cccc(-c2cn3cccnc3n2)c1 (stereo unspecified),inactive: -17.9%
20,CCOc1nc(-c2ccccc2)ccc1-c1noc(-c2ccc(C)cc2)n1,inactive: -12.6%
21,CCOc1ccc(NC(=O)CC2C(=O)N(c3ccccc3)C(=O)N2CCc2sccc2C)cc1 (stereo unspecified),inactive: -29.8%
22,O=C(Cn1cc(SCc2cccc(Cl)c2)c2ccccc21)N1CCCCC1,inactive: 3.09%
23,Cc1c(C(=O)OC2CCC(C)CC2)[nH]c2c1C(=O)CC(c1ccc(N(C)C)cc1)C2 (stereo unspecified),inactive: -12.3%
24,Fc1ccc(-c2cc(-c3nc(-c4ccc(Cl)cc4)no3)[nH]n2)cc1,inactive: -15.5%

row,SMILES,"activity change, negative = inhibition"
1,CC(C)(C)OC(=O)N1CCC(c2c(C(=O)N3CCN(C(=O)c4ccco4)CC3)cnn2-c2cccc(Cl)c2)CC1,inactive: -22.5%
2,CC(=O)c1ccc(NC(=O)c2nc(-c3ccc(Cl)cc3)n3c2CCCCC3)cc1,inactive: -11.4% [at 11.5 µM]
3,COC(=O)c1cc(NC(=O)CC2C(=O)OCCN2Cc2ccccc2)cc(C(=O)OC)c1 (stereo unspecified),inactive: -17.4% [at 11.5 µM]
4,COc1cccc(OCC(=O)NC2CC(=O)N(c3cccc(OC)c3)C2)c1 (stereo unspecified),inactive: -6.14%
5,Cc1ccccc1CSc1nc2c(sc3ccccc32)c(=O)n1CCCC(=O)NCCCOC(C)C,inactive: -13.5%
6,Cc1cc(C)c2c(=O)cc(C(=O)Nc3sc4c(c3C(=O)NCc3ccco3)CCCC4)oc2c1,inactive: 5.33%
7,CS(=O)(=O)CC[C@@H](C(=O)NCCc1ccccc1)N1Cc2ccccc2C1=O,inactive: 0.19%
8,Cc1cccc(OCC(=O)N2CCC(c3nc4ccccc4o3)CC2)c1C,inactive: -8.72%
9,NC(=O)N1c2ccccc2CC(=O)c2ccccc21,inactive
10,COc1ccc(NC(=O)Cn2c(=O)c3ccccc3n3nncc23)cc1Cl,inactive: -3.28%
11,COCc1cc(C)nc2c1C(=O)NC(c1ccc(NC(C)=O)cc1)N2Cc1ccccc1 (stereo unspecified),inactive: 0.139%
12,Cc1ccc(Nc2c3c(nc4nncn24)CCC3)c(C)c1,inactive: -15.4%
13,COc1ccc2c(c1)-c1nc(NC(=O)c3cccc(Br)c3)sc1CC2,inactive: -18.6%
14,Cc1ccc(NC(=O)Cn2nnc(-c3ccccc3)n2)c(C)c1,inactive: -4.39%
15,O=C(C1COc2ccccc2O1)N(Cc1cccnc1)c1nc2c(F)cccc2s1 (stereo unspecified),inactive: -11.7%
16,CCOC(=O)c1c(NC(=O)c2cc(-c3cccc(Cl)c3)on2)sc(C(C)=O)c1C,inactive: -3.13%
17,CCOc1ccc(S(=O)(=O)c2cn(CC)c3ccc(F)cc3c2=O)cc1,inactive: -28.7%
18,COc1ccccc1C1C(C(=O)N2CCCCC2)=C(C)Nc2nc3ccccc3n21 (stereo unspecified),inactive: -13.2%
19,COc1cccc(/C=C/c2nc(C#N)c(NC3CCCCC3)o2)c1,inactive: -0.858%
20,CSc1ccc(CCNC(=O)Cn2c(C)c3cnn(-c4ccccc4)c(=O)c3c2C)cc1,inactive: -5.81%
21,COc1cccc(-n2c(=O)c3sc4ccccc4c3n(Cc3c(F)cccc3Cl)c2=O)c1,inactive: -6.75%
22,Cc1ccc(CNC(=O)c2ccc(Cn3c(SCc4ccc(F)cc4)nc4cccnc43)cc2)o1,inactive: 1.25%
23,O=c1n(Cc2ccc(F)cc2)c2ccccc2c2nc(-c3ccccc3)nn12,inactive: 5.82%
24,CCOC(=O)c1c(C)oc2nc(C)nc(NCC3CCN(Cc4cc(C)ccc4C)CC3)c12,inactive: 0%

row,SMILES,"activity change, negative = inhibition"
1,Cc1ccc(N2C(=O)C(CC(=O)Nc3cccc(F)c3)N(CCc3ccccc3F)C2=O)cc1 (stereo unspecified),inactive: -6.09%
2,Cc1ccccc1OCC(=O)Nc1ccc(-c2nc3cc(Cl)cc(Cl)c3o2)cc1,inactive: -3.73%
3,COc1cccc(NC(=O)N(CCC(C)C)C2CCN(C(C)C)CC2)c1,inactive: -10.3%
4,Cc1ccc(CNC(=O)C2CCN(S(=O)(=O)c3ccc4nc5c(c(C(=O)O)c4c3)CC(C)CC5)CC2)cc1 (stereo unspecified),inactive: -9.97%
5,CCc1cnc2c(c1SCC(=O)NCc1ccc(C)cc1)c(=O)n(C)c(=O)n2C,inactive: -37.8%
6,C[C@@H](N)C(=O)O,inactive: -1.07%
7,CC(=O)c1ccc(NS(=O)(=O)c2ccc(Br)s2)cc1,inactive: -8.69%
8,CCOc1ccc(C(=O)OCc2cc(=O)n3nc(C4CC4)sc3n2)cc1,inactive: -20.6%
9,COc1cc(Cl)c(C)cc1NC(=O)c1cc2c(=O)oc3ccccc3c2s1,inactive: 17%
10,CCn1cc(C(=O)N2CCN(c3cc(Cl)ccc3C)CC2)c(=O)c2cc(S(=O)(=O)N3CCCC3)ccc21,inactive: -4.12%
11,COc1cc2nc(SCC(=O)Nc3ccccc3C)n3nc(CCn4c(C)nc5ccccc54)nc3c2cc1OC,inactive: -3.05%
12,CC(C)(C)C1CCc2c(sc(NC(=O)c3ccco3)c2C(=O)Nc2ccccc2Cl)C1 (stereo unspecified),inactive: -19%
13,CCOCCCNC(=O)c1cn(CC)c2ccc(S(=O)(=O)N3CCOCC3)cc2c1=O,inactive: -5.08%
14,CCOC(=O)CSc1nc2ccc(NC(=O)COc3ccc(F)cc3)cc2s1,inactive: -4.44%
15,Cc1cccc2sc(N(Cc3cccnc3)C(=O)CCOc3ccccc3)nc12,inactive: -9.99%
16,COc1ccc(CNC(=O)C2=CC(c3ccc(OC)c(OC)c3)=NS(=O)(=O)N2C)cc1,inactive: -16.3%
17,CCOc1ccc(NC(=O)N(Cc2cn(CC)c3ccccc23)C2CCCCCC2)cc1,inactive: -12.8%
18,Cc1cc(C)c(NC(=O)C2CCN(S(=O)(=O)c3c(C)noc3/C=C/c3ccccc3F)CC2)c(C)c1,inactive: -16.8%
19,CN(C)c1ccc(C(CNC(=O)c2ccccc2Cl)N2CCCC2)cc1 (stereo unspecified),inactive: 11.1%
20,Cc1nnsc1C(=O)Oc1ccc(Cl)cc1,inactive: -9.25%
21,CN1C(=O)Cc2cc(S(=O)(=O)NCc3ccc(Cl)cc3)ccc21,inactive: -19.8%
22,O=C(NCc1ccccc1)C(=O)NCC(c1cccs1)S(=O)(=O)c1cccs1 (stereo unspecified),inactive: -14.6%
23,Cc1ccc(Cn2c(=O)n(CCCCC(=O)NCc3ccc4c(c3)OCO4)c(=O)c3ccccc32)cc1,inactive: -8.67%
24,COc1cccc(N2CCN(C3=NS(=O)(=O)C(c4ccc(C)cc4)=C3C)CC2)c1,inactive: -23%

# Source: PubChem BioAssay AID1508623 (National Center for Advancing Translational Sciences (NCATS), 2021)
